# Results published in PubChem BioAssay AID602233 (National Center for Advancing Translational Sciences (NCATS), 2012).
# Out of some 380,000 compounds screened, about 170 (0.045%) were called active. This list was built around the results that the source calls inconclusive (neither active nor inactive); the mix of calls is not that of the screen. Calls follow the shape of the dose curve; as a rule, active = well fitted inhibition curve with a large enough effect; inconclusive = small, poorly fitted or top-dose-only effect; inactive = no such curve, though single readings can be large or run the other way. Potencies of inconclusive entries are left out as doubtful fits.
# Molecular target: Phosphoglycerate kinase, glycosomal (Trypanosoma brucei brucei) (UniProt P07378)
# Assay: qHTS Assay to Find Inhibitors of Phosphoglycerate Kinase; also: nearly all actives have a fitted effect of over 60% in size
# Conditions: PGK/GAPDH coupled, Kinase-Glo luminescence, 60 min; series mostly up to 57.5 µM; activity change, negative = inhibition: at the top concentration
# Outline: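 Luminescent ATP detection (Kinase-Glo Plus) follows a 60-minute room-temperature incubation, with wells lacking PGK as controls. Buffer: 100 mM TEA (pH 7.6), 5 mM MgCl2, 0.01% Tween-20. Coupling enzyme GAPDH (100 nM final) supplies unstable 1,3-BPG in-well.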
# % is scaled to controls: 0 for no effect and ±100 for the full control effect; potency is read from the fitted curve at half-maximal effect; tags tell the direction and shape of the fitted curve.
Compound,Potency,"activity change, negative = inhibition",outcome
CCc1ccc(S(=O)(=O)/N=C2/C=C(Sc3ncn[nH]3)C(=O)c3ccccc32)cc1,"inconclusive [inhibitor, partial curve]",–,–
O=C1CC(=O)N(Cc2ccco2)C(=O)N1,active: 5.01 µM,–,–
O=S(=O)(O)c1cc(Cl)cc(N=Nc2ccc(O)cc2O)c1O,"inconclusive [inhibitor, partial curve, poor fit]",–,–
COc1ccc(/C=N/NC(=O)c2ccc(O)cc2O)cc1CSc1ccccn1,"inconclusive [inhibitor, partial curve, poor fit]",–,–
COc1cc(CC2COC(c3ccc(O)c(OC)c3)C2COC(C)=O)ccc1O (configuration not stated),"inconclusive [inhibitor, partial curve]",–,–
O=C(O)CC(NC(=O)c1ccco1)c1ccco1 (configuration not stated),"inconclusive [inhibitor, single point]",–,–
COc1ccc(C(=O)Nc2ccc3[nH]ccc3c2)cc1,"inconclusive [inhibitor, partial curve, poor fit]",–,–
CCCNS(=O)(=O)c1cccc(C(=O)OCc2cc(=O)oc3cc(OC)ccc23)c1,–,inactive: -7.9%,–
C=C(C)C(=O)Nc1cccc(C2=NOC3(C2)C[C@H](C(N)=O)N(C(=O)/C=C/C)C3)c1 (some centres not stated),"inconclusive [inhibitor, partial curve, poor fit]",–,–
C/C(Cl)=C\Cn1c(Nc2ccc(C)cc2)nc2c1c(=O)n(C)c(=O)n2C,–,inactive: -8.22%,–
COc1ccc(OC)c(N/C=C/C(=O)c2ccccc2)c1,"inconclusive [inhibitor, partial curve]",–,–
Cc1cccc(NC(=O)c2cc(-c3ccc(C)c(C)c3O)n[nH]2)c1,–,inactive: -7.29%,–
O=C(CSc1ccccn1)Nc1ccc2c(c1)C(=O)c1ccccc1C2=O,"inconclusive [inhibitor, single point]",–,–
Cc1ccc(NC(=O)/C(=C/C=C/c2ccccc2)NC(=O)c2ccccc2)cc1,–,inactive: 3.88%,–
Cc1cc(=O)n(CC(=O)NC(C)c2ccccc2)c2c1c(C)nn2C (configuration not stated),"inconclusive [inhibitor, single point]",–,–
CC(NC(=O)CN1c2cccc3cccc(c23)S1(=O)=O)c1ccccc1 (configuration not stated),–,inactive: 3.4%,–
O=Nc1ccc(NOC(=O)c2ccccc2Br)cc1,–,inactive: -7.43%,–
Cc1nnc(Sc2nc3ccccc3o2)c2ccccc12,"inconclusive [inhibitor, single point]",–,–
Cc1ccc(C(=O)Nc2ccc(C(=O)N3CCCCC3)cc2)o1,"inconclusive [inhibitor, partial curve, poor fit]",–,–
Cc1ccc(-c2nnc(Nc3ccccc3)o2)cc1,"inconclusive [inhibitor, partial curve, poor fit]",–,–
O=C(/C=C/c1ccc(O)cc1)c1ccccc1,"inconclusive [inhibitor, partial curve, poor fit]",–,–
CC(C)(C)OC(=O)NCCCCCNC(=O)c1[nH]cnc1C(=O)NC1CCN(C(=O)OC(C)(C)C)CC1,–,–,inactive
O=c1[nH]c(=S)[nH]c2c1C(c1ccc(Br)cc1)c1c([nH]c(=S)[nH]c1=O)O2,"inconclusive [inhibitor, single point]",–,–

Compound,Potency,"activity change, negative = inhibition",outcome
O=C(O)c1ccc(N=N/C(=N\Nc2ccc(C(=O)O)cc2)c2ccccc2)cc1,"inconclusive [inhibitor, partial curve, poor fit]",–,–
CSc1ccc(/C=N/NC(=O)c2cccc(O)c2)cc1,"inconclusive [inhibitor, partial curve, poor fit]",–,–
CN(C)S(=O)(=O)c1cccc(NC(=O)COC(=O)/C=C/c2ccco2)c1,"inconclusive [inhibitor, partial curve, poor fit]",–,–
CC(=O)Oc1ccc(CC(C(=O)O)N2C(=O)c3ccccc3C2=O)cc1 (configuration not stated),active: 31.6 µM,–,–
O=C(O)c1ccc(-n2ncc(Cl)c(Cl)c2=O)cc1,"inconclusive [inhibitor, partial curve, poor fit]",–,–
COc1ccccc1CNS(=O)(=O)c1ccc2[nH]cc(C(=O)O)c(=O)c2c1,"inconclusive [inhibitor, partial curve, poor fit]",–,–
COc1ccc(OC)c(NC(=O)C(=O)/C=C(\O)c2cc(OC)ccc2OC)c1,–,–,inactive
Cc1cccc(NC(=O)CNC(=O)CCc2nc3sc4c(c3c(=O)[nH]2)CCCC4)c1C,"inconclusive [inhibitor, single point]",–,–
COc1ccc(CCNC(=O)c2cnn(-c3cccc(C)c3)c2C2CCN(C(=O)OC(C)(C)C)CC2)cc1OC,"inconclusive [inhibitor, partial curve, poor fit]",–,–
O=C(Cn1c(=O)nc(-c2ccccc2)c2cc(Cl)ccc21)N1CCN(c2ccccc2F)CC1,–,–,inactive
O=C(Cn1sc2ccccc2c1=O)Nc1ccc(Br)cc1,–,inactive: -2.59%,–
Cc1ccc(C(=O)c2no[n+]([O-])c2C(=O)c2ccc(C)cc2)cc1,–,inactive: -7.31%,–
Cc1cccc(NC(=O)c2onc3c2CCCC3)n1,"inconclusive [inhibitor, single point]",–,–
Cc1cccc(C)c1NC(=S)N(Cc1cccs1)C1CCCC1,–,inactive: 2.13%,–
O=C(O)Cc1ccc(S(=O)(=O)N2CCCC2)s1,"inconclusive [inhibitor, single point]",–,–
CCOc1cc(C(=O)N2CCc3c([nH]c4ccccc34)C2c2ccccc2)cc(OCC)c1OCC (configuration not stated),–,inactive: 11.1%,–
c1ccc2sc(-c3ccc4c(c3)OCO4)nc2c1,"inconclusive [inhibitor, partial curve, poor fit]",–,–
Cc1cccc(/C(N)=N/OC(=O)c2ccco2)c1,"inconclusive [inhibitor, partial curve, poor fit]",–,–
COc1ccc(C(=O)Nc2ccccc2C(=O)N/N=C/c2ccco2)cc1,"inconclusive [inhibitor, partial curve]",–,–
Oc1ccc(/C=N/Nc2ncnc3nc[nH]c23)cc1,"inconclusive [inhibitor, partial curve, poor fit]",–,–
C=C(C)C(=O)Nc1cccc(C2=NOC3(C2)C[C@H](C(N)=O)N(C(=O)COc2ccc(Cl)cc2)C3)c1 (some centres not stated),"inconclusive [inhibitor, partial curve, poor fit]",–,–
CO/N=C(\C(=O)N[C@@H]1C(=O)N2C(C(=O)O)=C(COC(C)=O)CS[C@H]12)c1csc(N)n1 (stereo in doubt),"inconclusive [inhibitor, single point]",–,–
COc1ccc(/C=N/NC(=O)c2cc(C(C)(C)C)[nH]n2)cc1COc1ccc(F)cc1F,"inconclusive [inhibitor, single point]",–,–

Compound,Potency,"activity change, negative = inhibition",outcome
CCCN1C=CC(=C2C(=O)c3ccccc3C2=O)C=C1,"inconclusive [inhibitor, partial curve, poor fit]",–,–
COC1=CC(=O)C(O)=C(CCCCCCC/C=C/CCCCCCCC2=C(O)C(=O)C=C(OC)C2=O)C1=O,"inconclusive [inhibitor, single point]",–,–
COC(=O)\C(C(C)=O)=C(/C=C/C=C/C=C/N(C)C)N(C)C,"inconclusive [inhibitor, partial curve, poor fit]",–,–
COc1cccc(NC(=O)Cn2cc(S(=O)(=O)N3CCCC3)c(S(=O)(=O)N3CCCC3)c2)c1,"inconclusive [inhibitor, partial curve]",–,–
O=C(c1coc(=O)c(Br)c1)N1CCOCC1,"inconclusive [inhibitor, partial curve, poor fit]",–,–
Nc1ccc2ncccc2c1,–,inactive: 5.93%,–
COc1ccc(CC(=O)Nc2nc(C)cs2)cc1OC,–,inactive: -0.0442%,–
Cn1cccc1C(=O)C(=O)Nc1ccccc1,"inconclusive [inhibitor, partial curve, poor fit]",–,–
COc1ccc(C2=NS(=O)(=O)N(C)C(C(=O)N3CCOCC3)=C2)cc1,–,inactive: -4.27%,–
O=C(Nc1ccccc1)c1cc2ccccc2o1,"inconclusive [inhibitor, partial curve]",–,–
COc1cc(Cl)c(C)cc1NC(=O)CSc1ncc(S(=O)(=O)c2ccc(C(C)(C)C)cc2)c(=O)[nH]1,"inconclusive [inhibitor, partial curve, poor fit]",–,–
O=C(O)CCCNC(=O)/C=C/c1ccco1,"inconclusive [inhibitor, partial curve, poor fit]",–,–
CC1=CN2C(=N)/C(=C/c3ccc([N+](=O)[O-])o3)C(=O)N=C2S1,–,inactive: -16.6%,–
COc1cccc(NC(=S)N2CCc3cc(OC)c(OC)cc3C2)c1,"inconclusive [inhibitor, partial curve]",–,–
CC1(C)CC(=O)C2=C(C1)NC(=O)NC2c1ccccc1Cl (configuration not stated),–,inactive: 1.11%,–
Cc1c(C(=O)O)cccc1-c1ccc(/C=N/n2cnnc2)o1,"inconclusive [inhibitor, partial curve, poor fit]",–,–
CCN1C(=O)c2ccccc2Sc2ccc(C(=O)NCCCN3CCCCC3)cc21,–,inactive: -0.701%,–
CC(C)n1c(=S)[nH]c2scc(-c3cccs3)c2c1=O,–,inactive: -3.48%,–
Cn1c(N=Nc2ccccc2)nc2ccccc21,"inconclusive [inhibitor, partial curve, poor fit]",–,–
Cc1cc(C)c(S(=O)(=O)/N=C2/C=C(Sc3ncn[nH]3)C(=O)c3ccccc32)cc1C,"inconclusive [inhibitor, single point]",–,–
CC1=CC(C)(C)Nc2ccc(OC(=O)c3ccco3)cc21,–,inactive: -6.23%,–
